Experimental data as given in the supplement of paper PMC5499739.
Whole data set: some 16,000 sequences, median “Z-score” near -0.37, cut for the highest 2% near 3.2. This is one part of the list.

Test system: RBM10 RRM1-ZnF (GST-tagged construct)
Assay: RNAcompete 7-mer binding Z-score; higher = stronger binding preference
Outline: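 A designed pool of 241 399 RNAs, each up to 41 nt and transcribed from microarray-derived DNA templates, was used at 1.5 nmol with 20 pmol of GST-tagged RBM10 constructs. The mixture, in 1 ml Hepes pH 7.8 buffer with KCl, NaCl, glycerol, DTT, BSA and glutathione Sepharose beads, was held 30 min at 4°C and then washed four times for 2 min at 4°C. Bound RNA was read out by microarray hybridisation, and enrichment of each heptamer motif was scored as a one-sided Z-score over the probes carrying it.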

Row | Sequence | RNAcompete 7-mer binding Z-score
1 | UCAGAAA | -0.266
2 | UCCCAAU | -0.854
3 | GAGCUCU | -0.704
4 | UGCCAGU | -0.438
5 | UCAUACA | -0.509
6 | AACCUAU | -0.893
7 | GCACCCC | -0.0382
8 | UGGCGAC | 0.576
9 | GGCAAGU | 0.68
10 | AGGCAGG | 1.8
11 | AGCCGUC | -0.545
12 | AAAGUCG | -0.0155
13 | AAUACAC | -0.584
14 | UAUCGGC | -0.597
15 | UCCCCUU | -0.545
16 | GUUAGAU | 0.215
17 | CUUACGU | -0.841
18 | GCCUUGA | -0.672
19 | UCAAAAG | -0.49
20 | CAAAUAC | -0.513
21 | UUCGUUG | -0.162
22 | CAGUCGC | -0.288
23 | AGAAUUA | -0.197

Row | Sequence | RNAcompete 7-mer binding Z-score
24 | CCCCUGC | -0.363
25 | CCAUGUA | -0.568
26 | AAUAAAC | -0.552
27 | CUGCGCC | -0.626
28 | CUGGUGC | 0.14
29 | AUCGCCG | -0.685
30 | AAAACGC | -0.428
31 | UCAGGAU | 0.469
32 | UUAUGGC | -0.311
33 | AUAACAG | 0.157
34 | CACCGGC | -0.188
35 | ACAUACG | -0.145
36 | AUAAAUU | -0.639
37 | AAGUGCC | -0.496
38 | CUAGGAU | 0.573
39 | CACCUUU | -0.873
40 | AGAGGAG | 1.69
41 | AUCACCA | -0.649
42 | CAGAAUA | -0.389
43 | GUAUUUA | -0.288
44 | GUUAAUU | -0.243
45 | UCCGUGC | -0.746
46 | CGUUAGA | -0.379

Row | Sequence | RNAcompete 7-mer binding Z-score
47 | GCCAAAA | -0.633
48 | AAUAUUC | -0.584
49 | CAGCCGG | -0.418
50 | CUCAGGA | -0.0902
51 | AAUUGAC | -0.35
52 | AGCCGUU | -0.808
53 | GUCCGUU | -0.431
54 | CGAUAUC | -0.646
55 | GUGUCCU | -0.415
56 | CUCGAGA | -0.37
57 | ACGGUCU | -0.62
58 | GACGUAA | -0.0447
59 | GCGUCAG | 0.199
60 | UCUUAGU | -0.672
61 | UACGGUG | 1.23
62 | GCACGGG | 2.27
63 | AAUAGGC | 0.192
64 | GUGGAAU | 2.68
65 | GGGACUC | 0.842
66 | CGUUCUG | -0.73
67 | CUUUAAC | -0.854
68 | CUAAGAC | -0.649
69 | GCGAGAG | 1.17

Row | Sequence | RNAcompete 7-mer binding Z-score
70 | AACCUGA | -0.639
71 | UACUGAG | -0.0122
72 | AUACCAA | -0.617
73 | GUCAGGU | 1.34
74 | CACUCGU | -0.552
75 | UUUCACU | -0.737
76 | GAACGUC | -0.496
77 | UACUGUA | -0.542
78 | CUUGCAA | -0.824
79 | CAGGACC | -0.155
80 | CCCAUGU | -0.772
81 | AGACGGU | 0.569
82 | CUUAUUA | -0.714
83 | UUCGCUC | -0.704
84 | ACCAUUU | -0.993
85 | GGUAUAA | 1.23
86 | AUCGUUC | -0.711
87 | GUCGGCU | -0.0252
88 | GGGCAGC | 1.32
89 | GGUUCCU | -0.256
90 | ACGCCUG | -0.581
91 | UGCCUUA | -0.798
92 | GGGGCCU | 0.807

Row | Sequence | RNAcompete 7-mer binding Z-score
93 | CUUGCCG | -0.974
94 | GGAGAAG | 3.36
95 | UCACUUC | -0.824
96 | AGGUGAG | 2.63
97 | GUUCACU | -0.613
98 | GAUUUCU | -0.681
99 | CUCGCAA | -0.698
100 | AUUUUAU | -0.711
101 | UAGAAUC | -0.376
102 | GAAUUUG | 0.137
103 | CCGUGGU | 0.361
104 | AUUACUG | -0.529
105 | ACAAUGU | -0.305
106 | GAGAGGG | 2.7
107 | GAUUUCA | -0.594
108 | GUAGAAU | 0.631
109 | CGAUAUG | -0.207
110 | CAUUUAG | -0.72
111 | GGAGCCU | -0.0512
112 | UUGUCGA | -0.568
113 | UCACCAA | -0.704
114 | AUGGGAC | 2.09
115 | GUGCGCU | 0.368

Row | Sequence | RNAcompete 7-mer binding Z-score
116 | UUGAGGG | 3.4
117 | UUGAAUA | -0.35
118 | UCACGGG | 0.878
119 | UUGAUGA | 0.261
120 | CUAGAUC | -0.591
121 | UCAUACU | -0.733
122 | ACGCCGC | -0.633
123 | GUAUCGG | 0.592
124 | GUGCUCA | -0.152
125 | UAACGUC | -0.438
126 | CGAGAAA | -0.0122
127 | AAAUUUU | -0.691
128 | CUCGAUA | -0.688
129 | AGAACUG | -0.0414
130 | AAGAGCC | -0.409
131 | CGGGAGA | 1.24
132 | GGCCUGG | 0.378
133 | GCUCUGA | -0.62
134 | GACAAGG | 2.5
135 | GGGUUAU | 2.6
136 | CACGUCU | -0.746
137 | CGGGUAA | 1.89
138 | UUACAAG | -0.243

Row | Sequence | RNAcompete 7-mer binding Z-score
139 | GAAGGAU | 3.32
140 | GGUGAGG | 4.5
141 | GUCCUUA | -0.711
142 | AUGCCGC | -0.646
143 | AAGUGAA | 0.927
144 | GAAGUUG | 1
145 | GCCCCCU | -0.353
146 | GCGUACC | -0.604
147 | ACUUCAU | -0.733
148 | GUUGAAU | 0.316
149 | CGGUGCC | -0.243
150 | CUUGCAC | -0.828
151 | UUAGGGU | 2.78
152 | AGGUUAG | 2.18
153 | AACACUU | -0.668
154 | ACAACAG | 0.00404
155 | GAUACGC | -0.275
156 | AACUGCA | -0.399
157 | GUUAUCA | -0.272
158 | GAUGGGA | 3.76
159 | GCAGGGG | 3.32
160 | GACUUCC | -0.802
161 | AAAAAGA | -0.035

Row | Sequence | RNAcompete 7-mer binding Z-score
162 | AUUCCAG | -0.581
163 | GACAUAU | -0.451
164 | CUGUUGG | -0.11
165 | UAAUUGC | -0.519
166 | AAACCGA | -0.75
167 | UUCCAGU | -0.639
168 | UAAGGAG | 1.97
169 | UGAUUUA | -0.493
170 | GUGGGUA | 3.53
171 | CGAUCAA | -0.477
172 | CCUUUGA | -0.805
173 | GCUUUAU | -0.698
174 | AGUACAU | -0.305
175 | ACUUUUU | -0.785
176 | UGUGUUU | -0.165
177 | GUCGAUA | -0.292
178 | AACAAAA | -0.516
179 | CGUUUUA | -0.87
180 | CAUGGGC | 1.08
181 | UACUCUG | -0.782
182 | ACCGCAC | -0.591
183 | CCGUUCC | -0.967
